Reference: PMC12136788
This is one part of the list.

B1: chr15:42745797:42746257:-|CDS|ENSG00000128881|control|control|control (ssRNA)
RNA: GGGAGUUCUACAGUCCGACGAUCAGUCCCAGUGCCUCUCCUCGAAGCUCAUCCUUGCCUCGCACGUCUAGUUCCUCACCAUCUAGGGCUGGACGGCCCCACCAUGACCAGAGGAGUUCGUCCCCACAUCUGGGGAGAAGCAAGCAACAGAGGAUUGAGCAUCA
B2: chr12:106067485:106067586:-|CDS|ENSG00000074590|msi1|FALSE|unique (ssRNA)
RNA: GGGAGUUCUACAGUCCGACGAUCCCUGAAGAAGCGAAGCAACAGCGAGCAUCGCUCUCACAGCACUGGCUUCAUUGAAGGUGUAGUUGGUCCUGCCUUACCCUCUACUUUCAAGAUGGAGCAGGACUUGUGCAGGACUGGCGUCAACAGAGGAUUGAGCAUCA
B3: chr21:46004801:46004902:+|3pUTR|ENSG00000142156|msi1|FALSE|unique (ssRNA)
RNA: GGGAGUUCUACAGUCCGACGAUCAGACUGGGGCCUGGACUGGACAUGAGAGCCCCUUGGUGCCACAGAGGGCUGUGUCUUACUAGAAACAACGCAAACCUCUCCUUCCUCAGAAUAGUGAUGUGUUCGACGUUUUAUCAAAGGCAACAGAGGAUUGAGCAUCA
B4: chr3:87253716:87253817:+|CDS|ENSG00000083937|unk|FALSE|unique (ssRNA)
RNA: GGGAGUUCUACAGUCCGACGAUCUGCCUCUACUUCAAAGGCUACAAUCUCAGAUGAAGAGAUUGAACGGCAACUCAAGGCUUUAGGAGUAGAUUAGUCAAAAGAAGUCAUACUAUUUUGCUUACUUAUAAUUAUGUAGUAUAACAACAGAGGAUUGAGCAUCA
B5: chr1:61455842:61455953:+|3pUTR|ENSG00000162599|unk|FALSE|unique (ssRNA)
RNA: GGGAGUUCUACAGUCCGACGAUCUUUUCUGUAACAUAUUGGAAAAAGAAAAUGCAGUUAUAUUCCUUUUUUAUUUGUUCCUUUAGUUUGUUUUGGUUCAGCAGUCAGCAGUUAAGUAUAUAACAUGGCCCGCAAGGACAAUGACAACAGAGGAUUGAGCAUCA
B6: chr1:202726062:202726163:-|3pUTR|ENSG00000117139|unk|total|mutant (ssRNA)
RNA: GGGAGUUCUACAGUCCGACGAUCGAAAUGCACCUGAUUUGCCAUUAUACCCACCAUCAAAAGCAACAUGGCCCUUUGGGUAUCCGUGCAAGAUCCGCCUAAGAACCGAGCCGAUCUCUACCUGGAAGAGGGUGAAACAUGGCUCAACAGAGGAUUGAGCAUCA
B7: chr8:122973292:122973393:+|3pUTR|ENSG00000178764|msi1|total|mutant (ssRNA)
RNA: GGGAGUUCUACAGUCCGACGAUCAGAGAUGGUCUCUCCCCAGCCAUGGGCCACCCUUGCCAGUGACUCCAAGUGGAACUACUCCGCUCGCGUGUGCCUGGAGGGUGCGGGAAGUCCAGCGACUCUCAGACGCACCUCCCAGAGCAACAGAGGAUUGAGCAUCA
B8: chrX:48700291:48700392:+|CDS|ENSG00000101945|unk|total|mutant (ssRNA)
RNA: GGGAGUUCUACAGUCCGACGAUCGCUCCGUCGCUGGGAGCAGGAGCUCAAUGCCAAGCGCAGCCAUCUGGGACGCAUCACUGCCGAGAAUGAGGUGGACCUGGACGGCCCUCCGCGGGCCUUCGUGUACAUCAAUGAGUACCGCAACAGAGGAUUGAGCAUCA
B9: chr17:55719626:55720665:-|three_prime_utr|ENSG00000166292|control|control|control (ssRNA)
RNA: GGGAGUUCUACAGUCCGACGAUCUGAAAAAUCAGCUUUCUAUUUACAUGAAACACUUUGGGGGUCAUGGGAGUGCACAGCAUUAGACAGUAUUUGGUUCACCCUGUAAAGUAGCCAAGAAAAGAUGAGAAAAAUCAAGAUAGGCAACAGAGGAUUGAGCAUCA
B10: chr20:31606305:31606406:+|3pUTR|ENSG00000125968|msi1|FALSE|unique (ssRNA)
RNA: GGGAGUUCUACAGUCCGACGAUCUGAGGCACUGGCGAGGAGAGGGCGCUCCUCUCUGCACACCUACUAGUCACCAGAGACUUUAGGGGGUGGGAUUCCACUCGUGUGUUUCUAUUUUUUGAAAAGCAGACAUUUUAAAAAAUGCAACAGAGGAUUGAGCAUCA
B11: ENSG00000168288:stop:overlap|stop_codon|ENSG00000168288|stop_codon|NA|stop_codon (ssRNA)
RNA: GGGAGUUCUACAGUCCGACGAUCGGAGUAUCUUCACUAAUGCAACACCAGACAGCCAUAUUAUGAAGAAAUUAAGUGGAAAUUAGCAGAAAUAUCCAUUCAUUUGCUGUACUAUUUGUAUGUAAUAUUUGGGUUGAUCUAUAACAACAGAGGAUUGAGCAUCA
B12: ENSG00000198589:be:win_9651|3pUTR|ENSG00000198589|bound_else_gene|NA|bound_elsewhere_windowed (ssRNA)
RNA: GGGAGUUCUACAGUCCGACGAUCCUUCAAGUGGUCCCUCUUUUUUUCCUACACACUCAGCUCUUCUCUAAAAGCAAGGAUUUGGAAUGAACAAUUCAGUUUGACAGAAAAAGCUGAAUAAAAUGGCAUCUGUAAUUGAAUUGUCAACAGAGGAUUGAGCAUCA
B13: ENSG00000198898:stop:overlap|stop_codon|ENSG00000198898|stop_codon|NA|stop_codon (ssRNA)
RNA: GGGAGUUCUACAGUCCGACGAUCCUCUGAGAGCUUACGUAAAAGAACAUUACCCGAAUGGAGUCUGCACUGUAAGUCAUCAGUAGCAGCUUUGUGUGUGUGUUUUGUGUAAAUGUGAGUCUUUAGCGUCUCUUAAAAUUUACACAACAGAGGAUUGAGCAUCA
B14: chr15:73560698:73560803:-|3pUTR|ENSG00000156642|msi1_unk|total|mutant (ssRNA)
RNA: GGGAGUUCUACAGUCCGACGAUCUUUUGGGCUUGAUGUGCUGUGAAUGUUGCUUUUUUUUUUCCUUUGUUAAAAUAUUUAAACCGAAGUGAAAAGGUCCUCUGAGGAUCAGAUCAUGCAUGCGCCAUUUUUUACUUAAUGCAGCAACAGAGGAUUGAGCAUCA
B15: ENSG00000175215:stop:overlap|stop_codon|ENSG00000175215|stop_codon|NA|stop_codon (ssRNA)
RNA: GGGAGUUCUACAGUCCGACGAUCUUGAGGAGCUGAGCGGAGCAGAGGACGUCUACACCAGCCUUGGGCAGCUGCGGGCCCCUUAGCCUGCCCUGCUUCCAAGCGACGGCCAUCCCAGUAGGGGACUUUCCCACACUGUGCCUUCAACAGAGGAUUGAGCAUCA
B16: ENSG00000198589:be:win_5351|CDS|ENSG00000198589|bound_else_gene|NA|bound_elsewhere_windowed (ssRNA)
RNA: GGGAGUUCUACAGUCCGACGAUCAUUCAGUUUCACAAGAUCCGGUUUCAAAUAUGAGUAUUACAGAGAGGCUUGAACACGCUUUGGAAAAGGCAGCUCCUCUCCUUCGUGAGAUUUUUGUGGAUUUUGCACCUUUUCUUUCUCCAACAGAGGAUUGAGCAUCA
B17: chr3:100728682:100728848:+|CDS|ENSG00000114354|unk|FALSE|unique (ssRNA)
RNA: GGGAGUUCUACAGUCCGACGAUCUAAUGGCCAGCCAAGACCCCUUGAAUCAAGUCAGGUGAAAUAUCUCCGUCGAGAACUGAUAGAACUUCGAAAUAAAGUGAAUCGUUUAUUGGAUAGCUUGGAACCACCUGGAGAACCAGGCAACAGAGGAUUGAGCAUCA
B18: chr9:86945015:86945116:-|3pUTR|ENSG00000180447|msi1|FALSE|unique (ssRNA)
RNA: GGGAGUUCUACAGUCCGACGAUCUUGGUUUUGGAUAAGUUUGAGCCCUUGACCUUAAUUUCAUUGCUACCACUCUGAUCUCUUAGCACAUUUCUUAGGAUUAAGGGUCCAAAAAUGCUGAUCUAAGGGGUUGCCAUGGUGUUGCAACAGAGGAUUGAGCAUCA
B19: chr12:54350855:54350965:+|3pUTR|ENSG00000111481|msi1|FALSE|unique (ssRNA)
RNA: GGGAGUUCUACAGUCCGACGAUCUUGCCCUGACAUUUUUGUAAAUUCUGUGCCCUUUGCUGUAGCUACACUUCAGAUUAAAGUAGGAGAAAGAAUGUGCUGAGUGUUUUCCUCCCUUUGCCUCUACCUGGCCCUCAUCCCAACCAACAGAGGAUUGAGCAUCA
B20: chr1:213005240:213005351:-|CDS|ENSG00000174606|unk|total|mutant (ssRNA)
RNA: GGGAGUUCUACAGUCCGACGAUCGAACCCAGUGGAAUUCUUCCGCCCUGAUAUUUCUCUGUUGGACAGAGACAAUGUUGGAUCCGUUUUACUCUUACAGCCCAAAAUUCCAUAUGCUGCCUGCCCUGCAAUCUGCGCCGCAAACAACAGAGGAUUGAGCAUCA
B21: chr16:58551611:58551719:-|CDS|ENSG00000125107|unk|FALSE|unique (ssRNA)
RNA: GGGAGUUCUACAGUCCGACGAUCCUGGCUCAGGCCCAGGCUCAGGCCCAGGUUCCAGCAAAAGCUCCUCUUGCUGGUCAAGUUAGCACUAUGGUAACCACCUCAACAACUACCACUGUUGCUAAAACGGUUACGGUCACCAGGCAACAGAGGAUUGAGCAUCA
B22: ENSG00000107863:be:win_1501|CDS|ENSG00000107863|bound_else_gene|NA|bound_elsewhere_windowed (ssRNA)
RNA: GGGAGUUCUACAGUCCGACGAUCGGACAGGAUGAAACCUUAGAAAAUGUCAAUUCUGGAACUCCAAUACCUGAUUCCAAUGGAGAGAAAAAACAGACUUACAAGUGGAGUGGGUUUACUGAACAGGAUGAUAGACGAGGUAUUCAACAGAGGAUUGAGCAUCA

Target: T1, UNK ZnF1-6 (called full-length) (human, UniProt Q9C0B0 30-357)
T1 sequence: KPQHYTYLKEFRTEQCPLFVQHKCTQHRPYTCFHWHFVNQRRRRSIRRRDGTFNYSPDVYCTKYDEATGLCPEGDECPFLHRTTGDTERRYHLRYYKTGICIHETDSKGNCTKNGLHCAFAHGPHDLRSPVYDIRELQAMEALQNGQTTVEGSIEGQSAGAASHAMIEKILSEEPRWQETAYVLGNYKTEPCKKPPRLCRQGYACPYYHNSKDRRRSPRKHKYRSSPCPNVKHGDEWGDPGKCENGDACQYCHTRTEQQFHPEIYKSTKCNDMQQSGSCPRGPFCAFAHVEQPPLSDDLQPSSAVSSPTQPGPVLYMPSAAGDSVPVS
Test: nsRBNS (natural sequence RNA bind-n-seq); RBNS binding buffer (assumed for nsRBNS): 25 mM Tris pH 7.5, 150 mM KCl, 3 mM MgCl2, 0.01% Triton X-100, 500 ug/ml BSA, 20 U/ml SUPERase-In, 4 C; UNK is unkempt and MSI1 is Musashi-1; names of the RNAs are library labels; protein concentration not given here; high values mean tight binding

Row | Binder | binding signal [enrichment R]
1 | B1 | 0.573
2 | B2 | 0.473
3 | B3 | 0.833
4 | B4 | 1.1
5 | B5 | 0.708
6 | B6 | 0.49
7 | B7 | 0.578
8 | B8 | 0.67
9 | B9 | 1.03
10 | B10 | 0.705
11 | B11 | 0.868
12 | B12 | 0.386
13 | B13 | 1.2
14 | B14 | 0.537
15 | B15 | 0.741
16 | B16 | 0.428
17 | B17 | 0.768
18 | B18 | 0.366
19 | B19 | 0.574
20 | B20 | 0.517
21 | B21 | 0.503
22 | B22 | 1.34
